According to PubChem BioAssay AID651820 (National Center for Advancing Translational Sciences (NCATS), 2012):
Screen size: about 340,000 compounds; about 12,000 (3.5%) were called active. Inconclusive means that the source gave no clear call. Such entries were picked first, then a sample of the others. Calls come from the whole dose curve; as a rule, active = well fitted inhibition curve with a large enough effect; inconclusive = small, poorly fitted or top-dose-only effect, or another doubt; inactive = no such curve, though single readings can be large or run the other way. No potency is given beside an inconclusive call; the fits are too rough.

Assay: qHTS Assay for Inhibitors of Hepatitis C Virus (HCV)
Conditions: Huh7.5.1 HCVcc-Cre (HCVcc is cell-culture hepatitis C virus) infection, luciferase reporter, 44 h; series mostly up to 41.8 µM
Outline: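 After 44 h co-culture of compound, cells and HCVcc-Cre (~0.5 moi), substrate is added for 15 min at room temperature and luciferase measured over 15 sec. Cells were seeded at 1,000/well and pre-cultured 4 h.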
Potency is the fitted concentration of half-maximal effect; tags give direction and shape of the fitted curve.

| SMILES | Potency |
| --- | --- |
| O=C(Nc1cccc(-c2cccc(F)c2)c1)C1CCN(C2CCC2)CC1 | inconclusive [inhibitor, partial curve] |
| O=Nc1c(-c2ccccc2)[nH]n(-c2ccccc2)c1=O | inactive |
| COc1ccc(CSc2ccc(-c3nc4ccccn4c3NCc3ccccc3)cc2OC)cc1 | inconclusive [inhibitor, partial curve] |
| CC(=O)N1CC(C)Sc2ccc(S(=O)(=O)NCc3ccc(F)cc3)cc21 (stereo not drawn) | inconclusive [inhibitor, single point] |
| NC(=O)c1ccc(C(F)(F)F)n(Cc2ccc(F)c(F)c2)c1=O | inconclusive [inhibitor, single point] |
| COCC(=O)N1CCC2CC1c1cc(Cl)ccc12 (stereo not drawn) | inactive |
| COc1cc(C(=O)OCC(=O)c2cc(C)n(CC3CCCO3)c2C)ccc1OCC(=O)N1CCOCC1 (stereo not drawn) | inactive |
| CCOc1ccccc1NC(=O)COc1coc(CN2CCc3ccccc3C2)cc1=O | inconclusive [inhibitor, single point] |
| NS(=O)(=O)c1cccc(NC(=O)CN2CCN(S(=O)(=O)c3ccc4c(c3)OCCO4)CC2)c1 | inactive |
| Cc1ccc(-c2cc(NC(=O)c3ccccc3)on2)cc1 | inactive |
| Cc1ccc(-c2nc(C3CCCN(S(=O)(=O)c4ccc(C)cc4)C3)no2)cc1 (stereo not drawn) | inconclusive [inhibitor, single point] |
| COC(=O)C1(c2ccccc2)NC(c2ccc(O)cc2)C2C(=O)N(c3ccc4c(c3)OCO4)C(=O)C21 (stereo not drawn) | inactive |
| CCN(C(=O)C(C)N1C(=O)/C(=C/c2cccs2)SC1=S)C1CCS(=O)(=O)C1 (stereo not drawn) | inactive |
| COc1cccc(-n2c(-c3ccco3)nc3nc4ccccc4nc32)c1 | inactive |
| COC(=O)C1=C(c2ccccc2OCc2ccccc2)C[C@@H]2CC[C@H]1N2C(=O)NCCCOC(C)C | inconclusive [inhibitor, partial curve] |
| CC(=O)NS(=O)(=O)c1ccc(NC(=O)C(Sc2ccccc2)c2ccccc2)cc1 (stereo not drawn) | inactive |
| COc1ccc2c(c1)oc(=O)c1cc(OC)ccc12 | inconclusive [inhibitor, partial curve, poor fit] |
| COc1ccccc1C(=O)NCCCCNC(=O)c1ccccc1OC | inactive |
| CC(NC(=O)c1ccc(N(C)C)cc1)C(c1cccs1)N1CCN(C)CC1 (stereo not drawn) | active: 10 µM |
| COc1ccc(C2CC(c3ccccc3)=NN2S(=O)(=O)c2ccc(C)cc2)c(OC)c1 (stereo not drawn) | inconclusive [inhibitor, single point] |
| Cn1c(=O)n(C/C=C/c2ccccc2)c(=O)c2c1nc1n2CCCN1Cc1ccccc1 | inconclusive [inhibitor, partial curve] |
| COc1ccc(C(=O)NC(=S)Nc2ccc3c4c(cccc24)CC3)cc1OC | inactive |
| CC(C)c1nc2sc3c(=O)n(N)cnc3c2c2c1COC(C)(C)C2 | inconclusive [inhibitor, full curve, poor fit] |
| CC1CCC(NC(=O)CC(NC(N)=O)c2ccccc2Cl)CC1 (stereo not drawn) | inactive |
| CN(C(=O)c1ccc(NC(=O)Cc2ccc(NC(=O)C3CCCN(C(=O)c4ccccc4)C3)cc2)cc1)C1CC1 (stereo not drawn) | inconclusive [inhibitor, single point] |

| SMILES | Potency |
| --- | --- |
| COc1nc(SCC(=O)Nc2ccccc2Cl)nc(N(C)C)n1 | inactive |
| Cc1ccc(-c2n[nH]c(=O)c3ccccc23)cc1S(=O)(=O)Nc1ccccc1 | inconclusive [inhibitor, single point] |
| CCn1c(=O)c(C(=O)NNC(=O)c2ccccc2Cl)c(O)c2ccccc21 | active: 14.1 µM |
| CCOc1ccccc1N=C1SC(CC(=O)Nc2ccc(OC)cc2OC)C(=O)N1CCC1=CCCCC1 (stereo not drawn) | inconclusive [inhibitor, single point] |
| COc1ccc(C(=O)/C=C/c2ccc(OC)c(O)c2)c(F)c1 | active: 14.1 µM |
| CC1CCN(C(=S)NC(=O)c2ccco2)CC1 | inactive |
| Fc1ccc(C2CCNCC2COc2ccc3c(c2)OCO3)cc1 (stereo not drawn) | active: 14.1 µM |
| COc1ccc(C(=O)NC2CC2)cc1OC1CCN(Cc2ccc(Cl)cc2)CC1 | inconclusive [inhibitor, single point] |
| CCCc1cc(C(N)=O)c(NC(=O)c2cc(C)on2)s1 | inconclusive [inhibitor, full curve] |
| O=C(CSCC(=O)N1CCCCC1)Nc1nc(-c2ccc(Cl)s2)cs1 | inactive |
| CCOc1ccc(CN2CCN(Cc3c[nH]c4ccccc34)CC2)cc1 | inconclusive [inhibitor, partial curve] |
| COc1cc2c(cc1NC(=O)C1CCCO1)oc1ccccc12 (stereo not drawn) | active: 7.94 µM |
| Cc1ccccc1C(=O)NC(=S)Nc1ccc(S(=O)(=O)N(C)c2ccccc2)cc1 | inconclusive [inhibitor, partial curve] |
| COc1ccc(Br)cc1C(=O)NC(=S)Nc1cc(-c2nc3ccccc3[nH]2)ccc1C | inconclusive [inhibitor, single point] |
| OC(COc1ccc(Br)cc1)CN1CCCC1 (stereo not drawn) | inconclusive [inhibitor, single point] |
| O=C1C(Cc2ccccc2)Nc2ncnc(N3CCCCC3)c2N1Cc1ccccc1 (stereo not drawn) | inactive |
| Nc1nc(-c2ccc(NC(=O)c3ccco3)cc2)cs1 | inconclusive [inhibitor, full curve] |
| O=C(Cn1nnc(-c2ccccc2F)n1)NCc1ccco1 | inactive |
| Cc1cc(NC(=O)c2ccccc2Oc2ccccc2)no1 | inconclusive [inhibitor, single point] |
| COc1ccccc1N(Cc1ccccc1)S(=O)(=O)c1cc(C(=O)O)ccc1Cl | inconclusive [inhibitor, single point] |
| COC(=O)CCN(c1ccccc1)S(=O)(=O)c1cc(-c2cc(C)no2)ccc1OC | inactive |
| CCOC(=O)C1(CCc2ccccc2)CCN(Cc2ccccn2)CC1 | inconclusive [inhibitor, single point] |
| CCCCCc1ccc(-c2cn(Cc3ccc(C)cc3)nn2)cc1 | inactive |
| CCCc1cc(C(=O)Nc2nccs2)cs1 | inconclusive [inhibitor, single point] |
| CC(=O)N1CCc2cc(S(=O)(=O)CCC(=O)NCc3ccc(Cl)cc3)ccc21 | inconclusive [inhibitor, single point] |

| SMILES | Potency |
| --- | --- |
| CN(CC(=O)Nc1ccc(Cl)c(C(F)(F)F)c1)C(=O)CCCc1nc2ccccc2c(=O)[nH]1 | inconclusive [inhibitor, single point] |
| O=C(Nc1cc(C(F)(F)F)ccc1N1CCOCC1)c1ccccc1 | inconclusive [inhibitor, full curve] |
| CC(=O)N1c2ccc(S(=O)(=O)N3CCCC(C(=O)Nc4cccc(Cl)c4)C3)cc2CC1C (stereo not drawn) | active: 5.62 µM |
| COc1ccc(-c2cc(O)cc(O)c2)cc1 | inactive |
| O=[N+]([O-])c1ccc(CN2CCN(c3ccc4ccccc4n3)CC2)cc1 | inconclusive [inhibitor, partial curve] |
| O=C(Cn1ncc(N2CCOCC2)c(Br)c1=O)c1ccc(Cl)cc1 | inactive |
| CC(C)(C)OC(=O)NNC1CC(=O)N(c2ccccc2F)C1=O (stereo not drawn) | inactive |
| COc1cc2nc(NC(=O)c3ccc(Cl)cc3)sc(=O)c2cc1OC | inconclusive [inhibitor, partial curve] |
| CC1Cc2ccccc2N1Cc1cccc(S(=O)(=O)N(C)C)c1 (stereo not drawn) | inconclusive [inhibitor, single point] |
| COCCCNCC(O)COc1ccccc1F (stereo not drawn) | inactive |
| Cc1ccc2cc(CN(CC3CCCO3)S(=O)(=O)c3ccccc3)c3nnnn3c2c1 (stereo not drawn) | inconclusive [inhibitor, partial curve] |
| COc1cccc2sc3cc(NCCCN4CCOCC4)ccc3c(=O)c12 | inconclusive [inhibitor, single point] |
| Cc1cccc(NC(=O)Cn2cnc3c(oc4ccccc43)c2=O)c1 | inconclusive [inhibitor, single point] |
| C=CCN1c2ccccc2[C@]23C[C@@H](C(=O)OC)N(C(=O)c4ccc(Br)cc4)C2=NC(C(=O)OC)=C(C(=O)OC)[C@H]13 | inactive |
| CC(=O)N1CCSc2ccc(S(=O)(=O)Nc3ccccc3C)cc21 | active: 11.2 µM |
| Fc1cccc(-c2cc3nc(-c4ccccc4)cc(N4CCC5(CC4)OCCO5)n3n2)c1 | inactive |
| O=C(Nc1ccccc1C(=O)Nc1ccccc1)c1cccs1 | inconclusive [inhibitor, partial curve] |
| O=C(Nc1ccccc1)OCc1cc(-c2ccccc2Cl)on1 | inconclusive [inhibitor, single point] |
| C/C(=N/Nc1ccc([N+](=O)[O-])cc1)c1ccc(C)cc1C | inconclusive [inhibitor, full curve, poor fit] |
| CC1CC(C)CN(S(=O)(=O)N2CCC(C(=O)NCc3ccco3)CC2)C1 (stereo not drawn) | inconclusive [inhibitor, single point] |
| COc1cccc(CCNC(=O)c2cc(COc3c(F)cccc3F)on2)c1 | inconclusive [inhibitor, single point] |
| CC1CCN(c2ccc(-c3ccc(NC(=O)c4ccco4)cc3)nn2)CC1 | inconclusive [inhibitor, partial curve] |
| CCOc1cccc(C2C(C(=O)c3ccc(C)o3)=C(O)C(=O)N2c2nnc(C)s2)c1 (stereo not drawn) | inactive |
